# In all, about 45,000 compounds went through this assay and about 200 (0.44%) were called active. Roughly 7% stayed inconclusive and do not appear here. Calls come from the whole dose curve; as a rule, active = well fitted activation curve with a large enough effect; inconclusive = small, poorly fitted or top-dose-only effect; inactive = no such curve, though single readings can be large or run the other way. Some of the results follow.
# Assay: qHTS of TDP-43 Inhibitors: NCGC Sytravon Library Screen; note: 0% is about no effect; nearly all actives have a fitted effect of over 55% in size
# Conditions: yeast TDP-43 toxicity rescue, BacTiter-Glo growth, 24 h; series mostly up to 46.1 µM; growth rescue (activation): at the top concentration
# Method in brief: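 TDP-43-expressing yeast, pregrown in raffinose, seeded at OD600 0.02 in galactose medium with compound for 24 hr at 30 deg C. Growth read by BacTiter-Glo luminescence, so rescue of toxicity appears as activation.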
row,Structure (SMILES),growth rescue (activation)
1,CC(=O)C1=C(O)C(=O)N(Cc2ccccc2)C1c1ccc(Br)cc1 (stereo not drawn),inactive: 2.48%
2,COc1ccc(NC(=O)CN2CCN(C(=O)N3CCOCC3)CC2)cc1,inactive: -11.6%
3,CC(C)(C)N(Cc1ccccc1)C(=O)COC(=O)Cn1cnc2ccccc2c1=O,inactive: 14.2%
4,COc1ccc(-c2nnc(SCC(=O)c3ccc[nH]3)n2-c2ccccc2)cc1,inactive: 7.49%
5,Cc1ccc(N2CCC(N3CCN(C4CCCCC4)C(CCO)C3)CC2)cc1 (stereo not drawn),inactive: -7.32%
6,Cc1cccc(C)c1NC(=O)COC(=O)c1ccc(N2CCCC2)c([N+](=O)[O-])c1,inactive: 15.8%
7,Cc1[nH]c(=O)[nH]c(=O)c1Sc1ccccc1[N+](=O)[O-],inactive: 7.64%
8,COC(=O)c1ccc(COC(=O)c2nn(C)c(=O)c3ccccc23)cc1,inactive: 9.14%
9,COc1ccc(NS(=O)(=O)c2cccc(Cl)c2Cl)cc1S(=O)(=O)N1CCCCC1,inactive: 21%
10,COc1ccc(C)cc1S(=O)(=O)n1ccnc1C,inactive: 10.9%
11,Cc1ccc(C(=O)O)cc1NC(=S)NC(=O)c1ccc(-c2ccccc2)cc1,inactive: 9.6%
12,COc1ccc(/C=C(\NC(=O)c2ccco2)C(=O)N2CCCCC2)cc1,inactive: 3.95%
13,CCOc1ccc(C(=O)NC2CCN(C(=O)Nc3ccc(F)cc3)CC2)cc1,inactive: 12.5%
14,COc1ccc(Cc2cnc(N)s2)cc1,inactive: 14.4%
15,O=S(=O)(NC(=NC1CCCCC1)c1ccccc1)c1ccc(F)cc1,inactive: 13.9%
16,Cc1ccc(NC(=O)[C@@H]2CCCN2S(=O)(=O)c2ccccc2F)cc1S(=O)(=O)N1CCOCC1,inactive: 1.85%
17,Cc1ccc(C)c(N2N=C(C(=O)Nc3cccc(S(=O)(=O)N4CCCCC4)c3)CCC2=O)c1,inactive: 22.7%
18,CCCc1nc(SCC(=O)Nc2nccs2)c2ccccc2n1,inactive: 19.1%
19,Cc1cc(C)n(CCN(C)C(=O)CCc2nnc(-c3ccc4c(c3)OCO4)o2)n1,inactive: -8.8%
20,Cc1cc(C)cc(C(=O)OCC(=O)NCc2ccco2)c1,inactive: 3.93%
21,CC(C(=O)N(C)Cc1ccccc1)N1CCN(C/C=C/c2ccccc2)CC1 (stereo not drawn),inactive: -5.71%
22,COc1ccc(N2CCN(C(=O)c3cc4c(s3)-c3ccccc3S(=O)(=O)C4)CC2)cc1,inactive: -3.1%
23,O=C(COC(=O)C1CCC(=O)N1)Nc1cc(Cl)ccc1Cl (stereo not drawn),inactive: 16.2%

row,Structure (SMILES),growth rescue (activation)
1,COc1ccc2nc(C)cc(SCC(=O)N/N=C/c3ccc(O)cc3O)c2c1,inactive: 15.2%
2,COc1ccccc1CNc1nc(NCc2ccccc2OC)c2sccc2n1,inactive: 6.53%
3,Cc1cc(C)cc(NC(=O)NC2CCN(CC(=O)Nc3cccc(Cl)c3C)CC2)c1,inactive: 5.46%
4,COc1ccc(C(=O)C2CCCN(C(=O)c3cc(C)nc(C)n3)C2)cc1OC (stereo not drawn),inactive: 12.3%
5,N#C/C(=C\c1ccccc1)C(=O)NNS(=O)(=O)c1ccc(Br)cc1,inactive: 25.2%
6,CCC1C(=O)N=C(SCC(=O)Nc2ccc(S(N)(=O)=O)cc2)NC1=O (stereo not drawn),inactive: -2.52%
7,O=C(c1ccccc1NS(=O)(=O)c1ccccc1[N+](=O)[O-])N1CCOCC1,inactive: -11.4%
8,COc1ccc(CCNC(=O)c2ccc3ccccc3n2)cc1OC,inactive: 27.8%
9,O=C(COC(=O)CC1c2ccccc2CCN1S(=O)(=O)c1ccc(F)cc1)Nc1ccccc1 (stereo not drawn),inactive: 14.7%
10,Cc1cc(C)c(NC(=O)Cn2nnc(-c3nc(-c4ccncc4)no3)c2N)c(C)c1,inactive: 10.9%
11,COc1ccc(-c2nc3n(n2)C(c2ccncc2)C(C(N)=O)=C(C)N3)cc1 (stereo not drawn),inactive: -4.67%
12,O=C(Nc1ccc[n+](CC(=O)c2cccc3ccccc23)c1)c1ccccc1,inactive: -25.9%
13,C[C@]12CCC(=O)C=C1C=CC1C2CC[C@@]2(C)C1CC[C@@]21CCC(=O)O1 (stereo partly drawn),inactive: 32.7%
14,CCOC(=O)n1c(SCC(=O)N(CC)CC)nc2ccccc21,inactive: 12.8%
15,Nc1ccc(N2CCCC2)c(S(=O)(=O)Nc2cccc(C(F)(F)F)c2)c1,inactive: -13.9%
16,CCOc1ccc(C(=O)NC2CCN(CC(=O)NCc3ccccc3)CC2)cc1,inactive: -8.78%
17,CN1CCN(CC(=O)NC23CC4CC(CC(C4)C2)C3)CC1,inactive: 2.36%
18,Fc1ccc(C2NCCn3cccc32)cc1 (stereo not drawn),inactive: 10.1%
19,CN1CCN(C(=O)CCN2C(=O)/C(=C\c3ccc(F)cc3)SC2=S)CC1,inactive: 10.9%
20,Cc1ccc(-c2c[n+](CC(=O)Nc3nc(-c4ccc(F)cc4)cs3)c3n2CCC3)cc1,inactive: 16.4%
21,CCN(CC)C(=O)CSc1ncnc2sccc12,inactive: 7.52%
22,CN(C)S(=O)(=O)c1cccc(NC(=S)NCc2ccco2)c1,inactive: 7.42%
23,Cc1ccc(-c2csc(Cc3nc(-c4ccc5c(c4)CCC(=O)N5)cs3)n2)cc1,inactive: 7.6%

row,Structure (SMILES),growth rescue (activation)
1,COc1ccccc1C(=O)CSc1nccn1C,inactive: -19.2%
2,COc1ccc(-c2onc3ccc(Br)cc23)cc1,inactive: 11.3%
3,C=CCn1c(SCC(=O)NCC2CCCO2)nc2scc(-c3ccc(OC)cc3)c2c1=O (stereo not drawn),inactive: 27.9%
4,CCN(/C(N)=N/c1nc(C)cc(C)n1)c1ccccc1,inactive: 0.575%
5,COc1ccc(N=C(c2ccccc2)c2c(C)[nH]n(-c3ccccc3)c2=O)c(OC)c1,inactive: -9.12%
6,COc1ccccc1C(=O)N/C(=C/c1ccccc1)C(=O)Nc1ccc(C(=O)O)cc1,inactive: 4.28%
7,N#CCCN(C(=O)COC(=O)CCc1ccccc1)c1ccccc1,inactive: 8.47%
8,Cc1c2ccccc2cc[n+]1CCCS(=O)(=O)[O-],inactive: -19.2%
9,O=C(CN1CCCCCC1)Nc1ccccc1OC(F)F,inactive: -11.2%
10,Cc1ccc(C)c(OCC(O)CN2CCN(CCN3C(=O)c4cccc5cccc(c45)C3=O)CC2)c1 (stereo not drawn),inactive: -11.9%
11,COc1ccc(Cl)cc1Nc1nc2ccc(C)cc2n2cnnc12,inactive: -11.3%
12,Cc1ccc(-n2c(SCC(N)=O)nc3c(oc4ccccc43)c2=O)cc1,inactive: -2.13%
13,COCCn1c(C)cc(C(=O)CN2c3cccc4cccc(c34)S2(=O)=O)c1C,inactive: 18.3%
14,CCCCCCCCC1=NCCc2c1[nH]c1ccccc21,inactive: -0.638%
15,CCc1cc2c(=O)c(-c3ccc4c(c3)OCCO4)c(C)oc2cc1OS(C)(=O)=O,inactive: 0.278%
16,CCN(c1ccccc1)c1nc2nonc2nc1NCCO,inactive: -1.47%
17,COc1ccc(C2C(C(=O)O)CCC(=O)N2c2ccc(C)cc2)cc1OC (stereo not drawn),inactive: -5.31%
18,COCCCN(C(=S)Nc1ccc(OC)cc1)C(C)c1ccncc1 (stereo not drawn),inactive: -18.5%
19,C/C(=N\Nc1nc(-c2ccccc2O)nc2ccccc12)c1ccccc1,inactive: 20.6%
20,Cc1nnc(SC(C(=O)Nc2cc(Cl)cc(Cl)c2)c2ccccc2)[nH]c1=O (stereo not drawn),inactive: 5.57%
21,COc1ccc(CNCC(O)(c2ccccc2)c2ccccc2)cc1OC,inactive: 8.17%
22,Cc1c(C(=O)Nc2cccc(Cl)c2)cn2c(nc3ccccc32)c1C#N,inactive: 5.08%

# Reference: PubChem BioAssay AID1347073 (National Center for Advancing Translational Sciences (NCATS), 2019)
